Results published in patent publication US20260364168A1, “USE OF PROTEIN KINASE C (PKC) ACTIVATING COMPOUNDS AS AN ADJUVANT” (priority 2022, published 2026).

tested on: NFκB; experiment: block of PKC activator-induced NFκB activation by PKC inhibitors (HeLa-NFκB luciferase reporter cells); type: cell-based
Description: A HeLa-NFκB luciferase reporter cell line (Wuxi Biology) was used to assess a group of PKC activator compounds for their ability to activate NFκB-driven transcription. Two sets of cells at 20000 cells/well were plated, grown overnight, and then treated for 16 h at 37 °C with DMSO, 6 doses of each compound, or TNF-α (final concentration of 10 ng/mL, positive control) in triplicates. One set of cells was assayed for luciferase activity (Promega, Cat #E1500) and the other set was assayed to determine the number of viable cells (for cell number normalization) using CellTiter-Glo (CTG) kit (Promega, Cat #G7570) according to manufacture's procedures. Normalized data (luciferase value/CTG value) were analyzed using GraphPad Prism5 to calculate EC50 for each compound (see Table 3).
To assess if activation of PKC is required for these compounds to activate NFκB, several PKC inhibitors including broad-spectrum and conventional PKC inhibitors were tested. In the assay described above, PKC inhibitors were added at the same time as the PKC activator compounds.

SMILES | block of NFκB activation induced by PKC activator compounds
COc1ccc2c(c1)c(C1=C(c3c[nH]c4ccccc34)C(=O)NC1=O)cn2CCCN(C)C [Compound G66983] | completely block
Cn1c2ccccc2c2c3c(c4c5ccccc5n(CCC#N)c4c21)CNC3=O [Gö6976] | unable to block
CN1CCN(c2nc(C3=C(c4c[nH]c5ccccc45)C(=O)NC3=O)c3ccccc3n2)CC1 [Sotrastaurin] | completely block
